Results taken from the antibiotic and cytotoxicity screens of Wong et al. (2023).
This is one part of the list.

Tests used:
[1] = tested on: HSkMC (human skeletal muscle cells); assay: cytotoxicity call (relative viability < 0.9); details: 10 µM
[2] = tested on: HepG2; assay: cytotoxicity call (relative viability < 0.9); details: 10 µM
[3] = tested on: S. aureus RN4220; assay: growth inhibition call (relative growth <= 0.2); details: 50 µM

Cc1ccc(S(=O)(=O)Nc2ccc3c(c2)C(=O)N([C@@H](C)CO)C[C@@H](C)[C@@H](CN(C)C(=O)Nc2ccc(F)cc2)OCCCC[C@@H](C)O3)cc1
inactive: cytotoxicity call [1] | cytotoxicity call [2] | growth inhibition call [3]

COc1ccc(S(=O)(=O)Nc2ccc3c(c2)C(=O)N([C@H](C)CO)C[C@@H](C)[C@H](CN(C)C(=O)Nc2c(C)noc2C)O3)cc1
inactive: cytotoxicity call [1] | cytotoxicity call [2] | growth inhibition call [3]

COCC(=O)Nc1ccc2c(c1)OC[C@@H](C)N(C(=O)Cc1cccnc1)C[C@@H](C)[C@H](OC)CN(C)C2=O
inactive: cytotoxicity call [1] | cytotoxicity call [2] | growth inhibition call [3]

CC(C)CC#Cc1cnc2c(c1)C(=O)N([C@H](C)CO)C[C@@H](C)[C@@H](CN(C)C(=O)c1ccc3c(c1)OCO3)O2
inactive: cytotoxicity call [1] | cytotoxicity call [2] | growth inhibition call [3]

NC(=O)[C@H]1CCCNC1
inactive: cytotoxicity call [1] | cytotoxicity call [2] | growth inhibition call [3]

O=C(N/N=C/[C@@H](O)[C@H](O)[C@H](O)CO)c1ccccc1O
inactive: cytotoxicity call [1] | cytotoxicity call [2] | growth inhibition call [3]

COc1ccc([C@@H](NC(=O)C2CCN(CCOc3ccc(Cl)cc3Cl)CC2)c2ccco2)cc1
inactive: cytotoxicity call [1] | cytotoxicity call [2] | growth inhibition call [3]

NNC(=O)CNC(=O)c1ccccc1
inactive: cytotoxicity call [1] | cytotoxicity call [2] | growth inhibition call [3]

CCN(CC)CCOC(=O)c1ccc(N)cc1.Cl
inactive: cytotoxicity call [1] | cytotoxicity call [2] | growth inhibition call [3]

COC(=O)[C@H](Cc1ccccc1)N1CC2=C[C@@H](C3CC3)n3c(=O)n(C)c(=O)n3[C@H]2[C@@H]1[C@@H](O)CCn1cc(COc2ccccc2/C=C(C)/C=C/C(=O)NO)nn1
inactive: cytotoxicity call [1] | cytotoxicity call [2] | growth inhibition call [3]

Cc1cc(C(=O)Nc2cccc3c2O[C@@H](CN(C)Cc2ccccc2)[C@H](C)CN([C@@H](C)CO)C3=O)n(C)n1
inactive: cytotoxicity call [1] | cytotoxicity call [2] | growth inhibition call [3]

CN([NH2+][O-])C(=O)N[C@@H]1[C@@H](O)[C@H](O)[C@@H](CO)O[C@@H]1O
inactive: cytotoxicity call [1] | cytotoxicity call [2] | growth inhibition call [3]

Cc1ccc(S(=O)(=O)Nc2ccc3c(c2)C(=O)N([C@H](C)CO)C[C@H](C)[C@H](CN(C)Cc2ccc(C(=O)O)cc2)OCCCC[C@@H](C)O3)cc1
inactive: cytotoxicity call [1] | cytotoxicity call [2] | growth inhibition call [3]

COc1ccc(S(=O)(=O)N(C)C[C@H]2Oc3cc(C#CC4CC4)ccc3S(=O)(=O)N([C@H](C)CO)C[C@@H]2C)cc1
inactive: cytotoxicity call [1] | cytotoxicity call [2] | growth inhibition call [3]

COc1cccc(S(=O)(=O)N(C)C[C@H]2Oc3cc(C#CCN(C)C)ccc3S(=O)(=O)N([C@H](C)CO)C[C@H]2C)c1
inactive: cytotoxicity call [1] | cytotoxicity call [2] | growth inhibition call [3]

C[C@H]1CN([C@@H](C)CO)C(=O)c2cc(NC(=O)Nc3cccc4ccccc34)ccc2O[C@H]1CN(C)C(=O)Nc1ccc(F)cc1
inactive: cytotoxicity call [1] | cytotoxicity call [2] | growth inhibition call [3]

O=C(C[C@H]1C[C@H]2c3cc(NS(=O)(=O)c4ccccc4)ccc3O[C@H]2[C@@H](CO)O1)NCC(F)(F)F
inactive: cytotoxicity call [1] | cytotoxicity call [2] | growth inhibition call [3]

C[C@@H]1CN([C@@H](C)CO)C(=O)Cc2cc(NS(=O)(=O)c3ccc(F)cc3)ccc2O[C@H]1CN(C)Cc1ccc(Cl)c(Cl)c1
inactive: cytotoxicity call [1] | cytotoxicity call [2] | growth inhibition call [3]

C[C@@H]1CCCCO[C@H](CN(C)S(C)(=O)=O)[C@@H](C)CN([C@H](C)CO)C(=O)c2cc(NS(=O)(=O)c3cccs3)ccc2O1
inactive: cytotoxicity call [1] | cytotoxicity call [2] | growth inhibition call [3]

C[C@H]1CN([C@@H](C)CO)C(=O)c2cc(C3=CCCC3)cnc2O[C@@H]1CN(C)C(=O)c1ccc2c(c1)OCO2
inactive: cytotoxicity call [1] | cytotoxicity call [2] | growth inhibition call [3]
